In PubChem BioAssay AID624296 (National Center for Advancing Translational Sciences (NCATS), 2012):
Hit rate of the full screen: of about 350,000 compounds, about 9,900 (2.8%) were called active. Inconclusive results, whose numbers are uncertain, are shown with a selection of clear calls. Calls come from the whole dose curve; as a rule, active = well fitted activation curve with a large enough effect; inconclusive = small, poorly fitted or top-dose-only effect; inactive = no such curve, though single readings can be large or run the other way. Potencies of inconclusive entries are left out as doubtful fits.

assay: A quantitative high throughput screen for small molecules that induce DNA re-replication in MCF 10a normal breast cells.; note: nearly all actives have a fitted effect of over 50% in size; conditions: MCF 10A DNA re-replication, Hoechst nuclear intensity, 48 h; series mostly up to 46.1 µM
Potency is the fitted concentration of half-maximal effect; tags give direction and shape of the fitted curve.

Compound | Potency
O=C(COc1ccc(S(=O)(=O)NCc2ccccc2)cc1Cl)NCc1ccncc1 | inconclusive [activator, single point]
Cc1ccnc(N2CCC(C(=O)Nc3ccc4c(c3)OCO4)CC2)n1 | inactive
COc1ccc(-n2nnnc2/C=C\Nc2ccc(C)cc2)cc1 | inactive
Nc1ccccc1Nc1ccccc1 | inconclusive [activator, single point]
CC(=O)c1c(C)[nH]c(C(=O)OCC(=O)Nc2ccc(Cl)c(S(=O)(=O)N(C)C)c2)c1C | inconclusive [activator, single point]
Cc1cc(C)nc(Sc2nc(Cl)nc(N(c3ccccc3)c3ccccc3)n2)n1 | inconclusive [activator, single point]
CCOC(=O)C1CCN(C(c2ccccn2)c2c(C)[nH]c3ccccc23)CC1 (stereo not drawn) | active: 20.6 µM
COC(=O)c1cc(C#N)c(Oc2ccc(F)cc2)nc1C | inconclusive [activator, partial curve, poor fit]
CCOC(=O)C1CCCN(C(=O)c2cccc(S(=O)(=O)N(C)c3ccc(OC)cc3)c2)C1 (stereo not drawn) | inactive
O=C(COC(=O)c1cccc(NS(=O)(=O)c2ccc(F)c(F)c2)c1)NC(=O)NC1CCCC1 | inconclusive [activator, partial curve, poor fit]
Cc1ccc(C)c(C(=O)COc2ccccc2[N+](=O)[O-])c1 | inconclusive [activator, single point]
O=C(c1cnc(N2CCN(c3ncccn3)CC2)c2ccccc12)N1CCN(c2ccccn2)CC1 | inconclusive [activator, single point]
CC1CC(=O)N(CC(=O)Nc2ccc3c(c2)OCO3)c2ccccc2S1 (stereo not drawn) | inactive
O=C(CNC(=O)N1CC(=O)Nc2ccccc21)Nc1cc(Cl)ccc1Cl | inactive
COc1ccc(-c2sc3ccccc3c2-c2ccc(OCCN(C)C)cc2)cc1 | inconclusive [activator, single point]
CCCCN1C(=O)C(=O)N(CC(=O)c2cc(C)n(C3CC3)c2C)C1=O | inactive
COc1ccc(C2C(Oc3ccccc3C)C(=O)N2Cc2ccc(F)cc2)cc1OC (stereo not drawn) | inactive
COc1ccc2[nH]c(=O)c(C(c3nnnn3C(C)(C)C)N(Cc3ccco3)CC3CCCO3)cc2c1 (stereo not drawn) | inactive
Cc1cc(C)cc(NC(=S)NCC2CCCO2)c1 (stereo not drawn) | inactive
Cc1ccc2nc3sc(C(=O)N4CCCc5ccccc54)c(N)c3cc2c1 | inconclusive [activator, partial curve, poor fit]
Cc1ccc(NC(=O)c2oc(=O)c3ccccc3c2-c2ccccc2)c(C)c1 | inconclusive [activator, single point]
Cc1nn(-c2ccccc2)c(Cl)c1/C=N/NC(N)=O | inactive
C/C(=N/Nc1ccc(C(=O)O)cc1)c1ccc2c(c1)Nc1ccccc1S2 | active: 16.4 µM
COc1cc(C(=O)Nc2ccc3ccccc3c2)cc(OC)c1OC | active: 2.59 µM
CC(=O)O[C@]1(C(C)=O)CC[C@H]2[C@@H]3C=C(Cl)C4=CC(=O)CC[C@]4(C)[C@H]3CC[C@@]21C | inconclusive [activator, full curve]

Compound | Potency
Cc1ccc(C2N(C)C(=O)c3ccccc3N2C)cc1 (stereo not drawn) | inconclusive [activator, single point]
COc1ccc2c(c1)C(C)=CC(C)(C)N2C(=O)C(C)N1C(=O)c2ccccc2C1=O (stereo not drawn) | inconclusive [activator, single point]
CCOC(=O)c1c(C)[nH]c(C(=O)/C(C#N)=C/c2ccc(OC(F)F)c(OC)c2)c1C | inactive
O=C(c1ccccc1)c1c2c(cc3sc4ccccc4[n+]13)-c1cccc3cccc-2c13 | inconclusive [activator, single point]
Cc1ccnc(NC(=O)C2CCN(S(=O)(=O)c3cccc4nonc34)CC2)c1 | inactive
O=C(/C=C/c1ccco1)NC(=S)Nc1ccc(O)c(-c2nc3ccccc3s2)c1 | active: 8.2 µM
Cc1occc1-c1nnc(SCC(=O)Nc2nc(-c3ccccc3)cs2)o1 | active: 18.4 µM
COc1ccc(-c2csc(-c3ccc(O)cc3)n2)cc1 | active: 14.6 µM
CN1C(=O)/C(=C\c2ccco2)N=C1c1ccc(Cl)cc1Cl | inactive
Cc1ccccc1Cn1nnc(-c2ccc(F)cc2)n1 | inactive
Cc1noc(C)c1CCC(=O)NC1CCCN(Cc2ccc(CC(C)C)cc2)C1 (stereo not drawn) | inactive
CC(OC(=O)CC1CC2CCC1C2)C(=O)Nc1cccc(S(=O)(=O)N2CCOCC2)c1 (stereo not drawn) | inactive
CCOc1ccc(N(CC(=O)Nc2cccc(Cl)c2)S(=O)(=O)c2c(C)noc2C)cc1 | inconclusive [activator, single point]
Cc1ccc2oc(=O)c3cc(C(=O)NCCCN4CCCCCC4)sc3c2c1 | inactive
CC(C)C(NC(=O)c1ccccc1Cl)C(=O)OCc1nc2scc(-c3ccccc3Cl)c2c(=O)[nH]1 (stereo not drawn) | inconclusive [activator, partial curve, poor fit]
CCC(=O)N1CCc2cc(Br)cc(S(=O)(=O)N3CCCCCC3)c21 | inactive
O=C(NC(C(=O)c1ccccc1)N1CCCCCC1)c1ccco1 (stereo not drawn) | inactive
Cc1cccc(S(=O)(=O)c2c(N)n(/N=C/c3cccnc3)c3nc4ccccc4nc23)c1 | inconclusive [activator, partial curve, poor fit]
O=C(COC(=O)c1cccc(Br)c1)NCCc1ccccc1 | inactive
CCn1c(SCc2ccc(C#N)cc2)nnc1-c1ccc(S(=O)(=O)N2CCCCC2)cc1 | inactive
CNC(=S)N/N=C(\C)c1cccc(C(F)(F)F)c1 | inactive
CCCCOc1ccc(OCCNC(=O)c2ccco2)cc1 | inconclusive [activator, partial curve, poor fit]
CCOC(=O)/C=C(\C)Sc1cc(O)c2ccccc2c1O | inconclusive [activator, single point]
O=C(CN1CCc2ccccc2C1)Nc1ccccc1N1CCCCCC1 | active: 13 µM
COc1ccc(NS(=O)(=O)c2ccc(N3CCCC3=O)cc2)cn1 | active: 10.3 µM

Compound | Potency
O=C(/C=C/c1c[nH]c2ccccc12)c1ccccc1 | inconclusive [activator, single point]
COc1cc2ccccc2cc1C(=O)Nc1nccs1 | inconclusive [activator, single point]
Cc1ccc(S(=O)(=O)N2CCCOC2CNC(=O)C(=O)NC2CCCC2)cc1 (stereo not drawn) | inactive
O=C1c2ccccc2-c2c1c1ccccc1c(=O)n2-c1ccccc1 | inconclusive [activator, partial curve, poor fit]
Cc1ccc(C)c(S(=O)(=O)N2CCCCC2CCNC(=O)C(=O)NCc2ccccc2)c1 (stereo not drawn) | inconclusive [activator, single point]
CC1Nc2ncnc(N3CCN(c4ccccc4)CC3)c2N(Cc2ccccc2)C1=O (stereo not drawn) | inactive
Clc1ccc(/C=N/Nc2nnc(Cl)c3ccccc23)cc1 | inactive
CCc1cccc(CC)c1N1C(=O)c2cc(N3CCOCC3)c([N+](=O)[O-])cc2C1=O | inconclusive [activator, single point]
CC(=O)N1CCN(CC(=O)Nc2ccccc2C(=O)Nc2ccccc2)CC1 | inactive
Cc1cc(C)c(S(=O)(=O)N2CCC3(CC2)OCCN3S(=O)(=O)c2cccs2)c(C)c1 | inconclusive [activator, partial curve]
CN1CCN(C(=O)CSc2nnc(COc3ccccc3)o2)CC1 | inconclusive [activator, partial curve, poor fit]
COc1ccc(/C=N/NC(=O)c2cc(-c3cccc(C)c3)nc3ccccc23)cc1O | inconclusive [activator, partial curve]
COc1ccc(-n2nc(C(=O)NCC(=O)NC3CCCCCC3)c3ccccc3c2=O)c(OC)c1 | inconclusive [activator, single point]
NS(=O)(=O)c1ccc(CCNC(=O)C2CCC(Cn3c(=S)[nH]c4ccccc4c3=O)CC2)cc1 (stereo not drawn) | inconclusive [activator, single point]
O=C(COc1ccccc1)N1CCN(c2ccc([N+](=O)[O-])c(N3CCCCC3)c2)CC1 | inconclusive [activator, partial curve, poor fit]
Cc1ccc2c(c1)C(=O)N1[C@H]3c4cc(Br)ccc4OC[C@@H]3[C@H](c3ccccc3)[C@]1(C)C(=O)N2 | active: 13 µM
CCOC(=O)N1CCC(NC(=O)c2cc(S(=O)(=O)N3CCC4(CC3)OCCO4)ccc2F)CC1 | inactive
CC(=O)Nc1ccc(S(=O)(=O)Nc2ccc(-n3cnnn3)cc2)cc1 | inactive
CCc1nccn1CCC(=O)N1CCCC(N2CCN(c3ccccc3F)CC2)C1 (stereo not drawn) | inconclusive [activator, partial curve, poor fit]
CCC(C)NC(=O)CNC(=O)c1nn(-c2ccc(OC)cc2OC)c(=O)c2ccccc12 (stereo not drawn) | inactive
O=C(CSc1nnc(-c2ccc(F)cc2)o1)N1CCN(C(=O)c2ccco2)CC1 | inconclusive [activator, single point]
CC(=O)c1cc(-c2ccccc2)n(CC(=O)Nc2ccc(C)c(C)c2)c1C | active: 23.1 µM
CCOC(=O)N1CCN(CC(O)COc2ccc(-c3ccccc3)cc2)CC1 (stereo not drawn) | inconclusive [activator, single point]
